# Experimental data taken from publication PMC6919601, “Identification of Plasmodium dipeptidyl aminopeptidase allosteric inhibitors by high throughput screening” (PLoS ONE, 2019).
# Screen size: about 110,000 compounds; about 230 (0.21%) showed an effect of 50% or more. This is one part of the list.
# Target: DPAP1 (Plasmodium falciparum, UniProt Q8IIJ9)
# Assay: primary screen, percent inhibition; read by cleavage of a fluorogenic dipeptide substrate; higher = more effect of the substance
# Parameters: species or system P. falciparum D10 trophozoite lysates; single well
# 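Further: 30 min substrate incubation versus DMSO and 10 µM JCP410 controls.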
# DPAP1, sequence (Q8IIJ9 whole entry, looked up): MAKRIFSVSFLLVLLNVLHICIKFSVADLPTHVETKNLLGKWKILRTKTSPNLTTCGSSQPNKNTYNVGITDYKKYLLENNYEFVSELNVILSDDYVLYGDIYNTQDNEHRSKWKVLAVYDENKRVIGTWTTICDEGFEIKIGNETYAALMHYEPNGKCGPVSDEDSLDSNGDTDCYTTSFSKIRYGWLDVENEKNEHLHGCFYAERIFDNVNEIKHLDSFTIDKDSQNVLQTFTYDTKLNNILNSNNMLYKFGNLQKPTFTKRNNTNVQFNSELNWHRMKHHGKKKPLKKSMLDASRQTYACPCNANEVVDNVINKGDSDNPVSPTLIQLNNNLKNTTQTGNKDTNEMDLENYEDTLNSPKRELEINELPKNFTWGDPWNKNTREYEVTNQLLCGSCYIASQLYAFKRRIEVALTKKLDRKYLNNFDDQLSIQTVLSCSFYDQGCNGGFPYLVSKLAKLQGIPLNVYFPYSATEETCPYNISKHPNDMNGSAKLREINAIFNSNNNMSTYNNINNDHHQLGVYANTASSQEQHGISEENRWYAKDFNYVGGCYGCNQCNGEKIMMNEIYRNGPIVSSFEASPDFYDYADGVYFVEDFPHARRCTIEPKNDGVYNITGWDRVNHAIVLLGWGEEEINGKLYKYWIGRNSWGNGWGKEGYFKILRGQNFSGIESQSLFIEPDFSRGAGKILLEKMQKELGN
row,Compound,% Inhibition @ 10 uM
1,CCOc1ccc(C(=O)Nc2cc3c(cc2C(C)=O)OCO3)cc1,2.03%
2,Fc1ccccc1-n1cc(-c2ccccc2)nc1S,45.3%
3,CCCC1CC(c2csc(N)n2)CCO1 (stereo not drawn),-5.47%
4,COc1ccc(/C(O)=C/C=N/Cc2ccc(F)cc2)cc1,4%
5,CCOc1ccc(NCC(=O)Nc2ccc(C)cc2)cc1,9.33%
6,CC(C)C[C@H](NC(=O)c1ccc(-c2csc(Nc3ccncc3)n2)cc1)C(=O)NCCN(CC(C)C)CC(C)C,-2.35%
7,Cc1nn(C(=O)CCC(=O)O)c2ccccc12,-5.32%
8,O=C(Nc1ccc(Br)cc1)c1ccc(CSc2ncccn2)cc1,0.843%
9,CC(C)(C)C1CCc2c(sc(NC(=O)Cn3nnc(-c4cccs4)n3)c2C#N)C1 (stereo not drawn),1.76%
10,CCN(CC)S(=O)(=O)c1cccc(C(=O)Nc2cccc(C(=O)O)c2)c1,-0.807%
11,Cn1ncc2c(N(Cc3ccccc3)Cc3ccccc3)ncnc21,3.04%
12,COc1ccc(CNc2oc(C)nc2C#N)cc1,3.8%
13,CC(c1ccccc1)N1CSC2=C(C#N)C(c3ccc(Cl)cc3)CC(=O)N2C1 (stereo not drawn),73.1%
14,COc1ccc(S(=O)(=O)N(C)CC(=O)NC2CCCCC2)cc1,1.02%
15,O=C(Nc1ccc(Oc2ccc(Cl)cc2)cc1)c1ccco1,7.35%
16,CCOC(=O)c1c(C)[nH]c(C)c1S(=O)(=O)NCCCc1ccccc1,-4.02%
17,COc1cccc2c1Oc1nc(-c3ccc(Cl)cc3)nc(O)c1C2,-4.68%
18,C/N=C1\S/C(=C\c2cccn2-c2cccc(Br)c2)C(=O)N1C,2.48%
19,N#CC1=C(N)Oc2cc(O)c(Cl)cc2C1c1cccnc1 (stereo not drawn),3.54%
20,CCC(CO)/N=C1\CC(C)(C)CC(O)=C1C(=O)CCCN1C(=O)c2ccccc2C1=O (stereo not drawn),0.9%
21,O=c1cccc2n1C[C@H]1C[C@@H]2CN(Cc2cccs2)C1,1.54%
22,COc1cc(C(=O)Nc2cc(-c3ccccc3)no2)cc(OC)c1OC,-1.47%
23,CC(=O)NC(c1ccccc1)n1nnc2ccccc21 (stereo not drawn),3.16%
24,COc1cccc(C(=O)NC2=NC(=O)CC(CC(C)C)N2)c1 (stereo not drawn),-4.79%
25,CCc1nc2cccnc2n1-c1ccc(C(=O)N2CCN(C3CCCCC3)CC2)cc1,8.61%

row,Compound,% Inhibition @ 10 uM
1,Cc1cc(O)c(C2=NCCSC(c3ccccn3)C2)c(=O)o1 (stereo not drawn),1.66%
2,CSc1ccc(C2Oc3ccccc3C3=C2C(c2cccs2)n2ncnc2N3)cc1 (stereo not drawn),3.32%
3,CC1CCC(N2CCN(Cc3ccccc3)CC2)C1 (stereo not drawn),-3.5%
4,CCOC(=O)c1sc(NCCc2c[nH]c3ccc(OC)cc23)nc1-c1ccccc1,2.31%
5,CCC(=O)NCc1nc2ccccc2n1Cc1c(F)cccc1Cl,-13.6%
6,CC1=CC2=NC(=O)/C(=C\c3cn(Cc4ccc5c(c4)OCO5)c4ccccc34)C(=N)N2O1,2%
7,COC(=O)c1ccccc1NC(=O)c1cccs1,-9.83%
8,Cc1ccc(C)c(N(CC(=O)N2CCCC2)S(=O)(=O)c2ccccc2)c1,-4.06%
9,COc1ccccc1NC(=O)CCSc1nc2ccccc2s1,-5.63%
10,CC1=CC(C)(C)N2C(=O)C(=O)c3c(C)ccc1c32,-2.88%
11,CCOc1cc2c(cc1OCC)C1C(C(=O)N(C)C3CCCCC3)c3ccccc3C(=O)N1CC2 (stereo not drawn),2.97%
12,CCOC(=O)C1=C(CN2CCC(N3CCCCC3)CC2)NC(=O)NC1c1ccc(OC(C)C)cc1 (stereo not drawn),-2.83%
13,Cc1nc2ccccc2c2oc(C(=O)NCCCN3CCCC3=O)cc12,-0.0115%
14,N#CC1=C(N)OC2=C(C(=O)CCC2)C1c1ccc(Br)o1 (stereo not drawn),-4.84%
15,CN(C)CCCN(C/C=C/c1ccc(N(C)C)cc1)CCCN(C)C,3.24%
16,Cc1nc2scc(C)n2c(=O)c1S(=O)(=O)NCCN1CCOCC1,1.72%
17,CCn1ncc(C2=NOC(C(=O)Nc3cc(C)nn3-c3ccccc3)C2)c1C (stereo not drawn),-6.68%
18,CC(C)(CN)C12CC3CC(CC(C3)C1)C2,1.62%
19,CC(C)(C)NC(=O)c1cc2nc3c(c(C(F)(F)F)n2n1)CCc1ccccc1-3,-0.362%
20,O=C(c1cc2ccccc2c(=O)s1)N1CCOCC1,-8.99%
21,Cc1nc2c3ccccc3n(CCc3ccccc3)c2s1,-6.94%
22,Cc1ccccc1Cn1c(C(=O)O)c(CNC2CCCC(C)C2C)c2ccccc21 (stereo not drawn),6.41%
23,Cc1ccc(C2C(C#N)=C(N)OC3=C2C(=O)CCC3)o1 (stereo not drawn),-5.94%
24,CC1(C)CC(=O)C2=C(C1)N1C(=C(C#N)C2c2cccnc2)N=C(N)c2c1sc1c2CCCCC1 (stereo not drawn),-2.39%
25,COCCNS(=O)(=O)c1cc(-c2cc(C)no2)ccc1C,-3.75%

row,Compound,% Inhibition @ 10 uM
1,O=C(Cn1c2ccccc2c2cnnc(O)c21)NCCCN1CCc2ccccc2C1,1.38%
2,COc1cccc(N2C(=O)CC(N3CCN(c4ccc(Cl)cc4)CC3)C2=O)c1 (stereo not drawn),-4.68%
3,CN(C)c1ccc(-c2nc3cc(NC(=O)COc4ccccc4)ccc3o2)cc1,-9.4%
4,Cc1ccc(C(C)C)c(OCC(=O)Nc2ccc(S(=O)(=O)N3CCCCC3)cc2)c1,3.53%
5,C=Cc1ccc(Cn2c(C)c(CNCc3cccs3)c(C(=O)O)c2C)cc1,-5.49%
6,CC(C)C[C@H](NC(=O)N1CCCC1C)C(=O)NCC#N (stereo partly drawn),4.33%
7,O=C(O)c1cc(-c2ccc(O)cc2)nc2[nH]nc(-c3ccccc3)c12,-4.18%
8,C=CCSC1=C(C#N)C(c2ccc(CC)cc2)CC(=O)N1 (stereo not drawn),-0.864%
9,CCC(=O)Nc1ccc(NC(=O)c2ccco2)cc1,-2.37%
10,COc1ccc(N(CN2C(=O)C3CCC(C)CC3C2=O)C(C)=O)cc1 (stereo not drawn),-17.9%
11,Cc1ccc(Cn2c(C(=O)O)c(CNCCc3ccccc3Cl)c3ccc(C)cc32)cc1,8.55%
12,OC1CCN(Cc2ccc(Cl)c(Cl)c2)CC1,-13.8%
13,COc1ccc2nc(NC(=O)c3c(-c4ccccc4)noc3C)sc2c1,-5.69%
14,COc1cccc(S(=O)(=O)Nc2cccc(C(C)=O)c2)c1,6.69%
15,CCN(CC)C(=O)C1CCCN(Cc2c3ccccc3cc3ccccc23)C1 (stereo not drawn),1.26%
16,O=C(Nc1ccc(Br)cc1)c1cccc(S(=O)(=O)Nc2ccc(Cl)cn2)c1,-0.0217%
17,O=C(COc1ccc(S(=O)(=O)NCCc2ccccc2)cc1)N1CCCCCC1,-5.31%
18,CCOP(=O)(O)C(Oc1ccccc1O)c1ccccc1 (stereo not drawn),2.6%
19,COc1ccc(C(NC(=O)C2CC=CCC2C(=O)O)c2ccccc2)cc1 (stereo not drawn),0.503%
20,CC(Nc1cc(N2CCN(CCO)CC2)ccc1[N+](=O)[O-])C12C[C@H]3C[C@@H](C1)C[C@@H](C2)C3 (stereo partly drawn),1.72%
21,CC1=C(C(=O)c2ccccc2)C(c2ccccc2)NC(=O)N1 (stereo not drawn),-3.77%
22,c1ccc2sc(SCc3ccc4nonc4c3)nc2c1,2.69%
23,CCOc1ccc(C2(O)C[N+](c3cccc(C)c3C)=C3CCCCN32)cc1 (stereo not drawn),3.99%
24,COCCN1C2=C(C(=O)CC(C)(C)C2)C(c2cc(Cl)c(O)c(OC)c2)C2=C1CC(C)(C)CC2=O,-3.41%
25,Cn1nc(C(=O)NCCN2CCOCC2)c2c1-c1ccccc1SC2,1.68%

row,Compound,% Inhibition @ 10 uM
1,CCOc1ccc(C(=O)Nc2ccc(S(=O)(=O)Nc3nccs3)cc2)cc1,-5.78%
2,CCCCNC(=O)CCN1C(=O)c2ccccc2S1(=O)=O,-8.53%
3,Cc1cc(C)cc(NS(=O)(=O)c2ccc(NC(=O)[C@@H]3CCCC[C@@H]3C(=O)O)cc2)c1,2.86%
4,Cc1cc(=O)oc2c1c(C)nn2-c1ccc(Br)cc1,2.22%
5,COc1ccc(-c2nnc3c4cnn(-c5ccccc5)c4ncn23)cc1OC,-5.85%
6,O=C(Nc1cccc(Cl)c1)Nc1nc2ccccc2[nH]1,3.24%
7,O=C1c2ccccc2C(=O)N1C1CCCCC1N1C(=O)c2ccccc2C1=O (stereo not drawn),3.5%
8,Cc1ccc(S(=O)(=O)NCCC(c2ccc(F)cc2)c2ccco2)cc1 (stereo not drawn),-3.74%
9,O=S(=O)(NCc1ccc2[nH]c3c(c2c1)CCCC3)c1ccc(Cl)s1,0.00706%
10,CCOc1ccc(S(=O)(=O)N2CCSC2c2ccc(Cl)cc2)cc1 (stereo not drawn),-0.865%
11,COc1cc(C2c3sc(O)nc3SC3C4CC(C5C(=O)N(CC(=O)O)C(=O)C45)C23)ccc1O (stereo not drawn),3.87%
12,Cc1cc(C)n(CCC(=O)O)c(=O)n1,-1.29%
13,CC1=C(C(=O)Nc2cccc(Cl)c2)C(c2ccc(Cl)cc2)NC(=O)N1 (stereo not drawn),-6.33%
14,CCNC(=O)/C(C#N)=C/c1c(Oc2ccc(Br)cc2)nc2ccccn2c1=O,2.16%
15,Cc1ccc2[nH]c(C(C)(C)C)cc2c1,3.72%
16,COc1ccc(C2C(C(N)=O)=C(C)Nc3nc(-c4ccccc4)nn32)cc1OC (stereo not drawn),-1.47%
17,CCOc1ccccc1CNCc1c(C(=O)O)c(C)n(Cc2ccc(F)cc2)c1C,-5.49%
18,NC(=O)C1(S(=O)(=O)c2ccccc2)CC1,-4.06%
19,CCOc1ccc(-n2c(C)nc3cc(C(=O)NCC4CCCO4)ccc32)cc1 (stereo not drawn),5.85%
20,CC(C)Sc1nn2c(=O)cc(CSc3nc4ccccc4[nH]3)nc2s1,1.15%
21,O=C(C1COc2ccccc2O1)N1CCn2c(nc3ccccc32)C1 (stereo not drawn),-8.68%
22,Fc1ccc(CNCCC2=CCCCC2)cc1,2.38%
23,Cc1nnc(C)n1/N=C/c1cc(C(C)(C)C)c(O)c(C(C)(C)C)c1,3.06%
24,Cc1ccccc1C(=O)Nc1ncn(Cc2ccccc2)n1,2.26%
